Experimental data from publication PMC4336329 (PLoS ONE, 2015).
Among all 310,000 compounds or so, about 2,200 (0.71%) showed an effect of 50% or more. The effect is printed as a negative number. The list shows a part of the results.

These compounds were tested against human ether-à-go-go-related gene (hERG) potassium channel (human, UniProt Q12809) (assay: primary screen, population patch clamp on CHO cells stably expressing hERG).
human ether-à-go-go-related gene (hERG) potassium channel, sequence (Q12809 whole entry, looked up): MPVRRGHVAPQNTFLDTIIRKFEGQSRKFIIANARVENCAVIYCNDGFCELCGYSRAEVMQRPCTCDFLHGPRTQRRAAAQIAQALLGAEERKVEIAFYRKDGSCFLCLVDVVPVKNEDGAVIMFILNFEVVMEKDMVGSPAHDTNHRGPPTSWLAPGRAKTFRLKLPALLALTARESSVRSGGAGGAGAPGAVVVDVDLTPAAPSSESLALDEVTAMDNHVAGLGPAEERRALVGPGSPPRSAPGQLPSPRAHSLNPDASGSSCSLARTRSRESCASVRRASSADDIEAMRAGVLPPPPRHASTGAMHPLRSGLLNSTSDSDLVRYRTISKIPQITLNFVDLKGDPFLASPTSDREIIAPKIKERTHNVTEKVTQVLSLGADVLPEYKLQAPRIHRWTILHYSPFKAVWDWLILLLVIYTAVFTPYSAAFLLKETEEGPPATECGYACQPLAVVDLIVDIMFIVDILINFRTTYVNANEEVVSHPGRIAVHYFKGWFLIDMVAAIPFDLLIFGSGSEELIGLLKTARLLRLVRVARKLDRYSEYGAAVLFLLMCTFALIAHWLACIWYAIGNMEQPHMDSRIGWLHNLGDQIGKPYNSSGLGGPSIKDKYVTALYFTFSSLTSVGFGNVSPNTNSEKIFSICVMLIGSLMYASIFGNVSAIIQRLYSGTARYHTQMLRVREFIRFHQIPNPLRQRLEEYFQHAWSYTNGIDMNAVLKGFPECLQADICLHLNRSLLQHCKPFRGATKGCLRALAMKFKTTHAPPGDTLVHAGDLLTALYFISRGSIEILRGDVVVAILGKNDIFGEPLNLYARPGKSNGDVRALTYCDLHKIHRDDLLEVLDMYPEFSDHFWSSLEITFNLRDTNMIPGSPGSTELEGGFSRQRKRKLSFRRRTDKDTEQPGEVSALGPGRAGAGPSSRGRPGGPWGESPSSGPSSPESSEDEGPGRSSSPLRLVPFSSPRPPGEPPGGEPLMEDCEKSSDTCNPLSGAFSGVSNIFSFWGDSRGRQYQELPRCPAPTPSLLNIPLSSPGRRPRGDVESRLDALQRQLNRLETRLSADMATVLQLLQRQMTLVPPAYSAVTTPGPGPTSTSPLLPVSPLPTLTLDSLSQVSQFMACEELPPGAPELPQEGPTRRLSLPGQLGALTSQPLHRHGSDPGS
For O=C(NCCc1ccc(Cl)cc1)c1ccc2ccccc2n1, the “hERG current change (%, negative = inhibition) at 1uM” value was 3.69%. For CN(CC(=O)Nc1cccc(F)c1)C(=O)C1CC(=O)N(Cc2ccccc2)C1 (stereo not shown), the “hERG current change (%, negative = inhibition) at 1uM” value was 6.45%. For Brc1ccccc1/C=N/Nc1nc2ccccc2o1, the “hERG current change (%, negative = inhibition) at 1uM” value was 13.5%. In the case of COc1ccccc1OCCC(=O)OCC(=O)Nc1cc(S(=O)(=O)N2CCOCC2)ccc1Cl, the “hERG current change (%, negative = inhibition) at 1uM” value is reported as 6.47%. In the case of O=C(C1CCN(S(=O)(=O)c2ccccc2)CC1)N1CCCCC1, the “hERG current change (%, negative = inhibition) at 1uM” value is reported as 4.28%. O=C(/C=N/O)NCC1CCNCC1 was tested, and the “hERG current change (%, negative = inhibition) at 1uM” value was 19.1%. In the case of Cc1cc(=O)oc(C)c1C(=O)Nc1cccc2nonc12, the “hERG current change (%, negative = inhibition) at 1uM” value is reported as 0.776%. O=C(c1cccs1)N1CCN(c2ncc(Br)cn2)CC1 was tested, and the “hERG current change (%, negative = inhibition) at 1uM” value was 13.4%. For CCCN1Cc2cccc(C(=O)NCc3ccc4c(c3)OCO4)c2C1=O, the “hERG current change (%, negative = inhibition) at 1uM” value was 2.81%. In the case of COc1ccc(-c2cnc3c(-c4ccc(F)cc4)cnn3c2N)cc1, the “hERG current change (%, negative = inhibition) at 1uM” value is reported as 15.9%. In the case of O=C1C2C(C(=O)N1c1ccc3c(c1)OCO3)C1C=CC2C12CC2 (stereo not shown), the “hERG current change (%, negative = inhibition) at 1uM” value is reported as 2.83%. With Cl.O=C(c1ccco1)N(CCCN1CCOCC1)c1nc(-c2ccc(F)cc2)cs1 the “hERG current change (%, negative = inhibition) at 1uM” value was 13.3%. Fc1ccc(N2CCN(c3ncnc4c3nnn4Cc3ccccc3Cl)CC2)cc1 was tested, and the “hERG current change (%, negative = inhibition) at 1uM” value was 14.2%. With Cc1ccccc1OC1CCN(C(=O)c2cc(COc3ccccc3)on2)CC1 the “hERG current change (%, negative = inhibition) at 1uM” value was 13%. In the case of CCOC(=O)CCNCc1ccc(F)cc1.Cl, the “hERG current change (%, negative = inhibition) at 1uM” value is reported as 9.06%. For N#CCCCSc1nnc(CSc2nc3ccccc3s2)n1-c1ccccc1, the “hERG current change (%, negative = inhibition) at 1uM” value was -8.46%. With Cn1c(/C=C/c2ccc(Br)cc2)nc2ccccc2c1=O the “hERG current change (%, negative = inhibition) at 1uM” value was 17.1%. In the case of CCOC(=O)c1c(S(=O)(=O)NCCc2ccccc2)c(C)n(C)c1C, the “hERG current change (%, negative = inhibition) at 1uM” value is reported as -11.1%. With CCOc1ccc(S(=O)(=O)N(C)c2ccc(OCC(=O)Nc3nccs3)cc2)cc1 the “hERG current change (%, negative = inhibition) at 1uM” value was 7.75%. With COc1ccc(-c2cnn3c(N)c(S(=O)(=O)c4ccccc4)cnc23)cc1 the “hERG current change (%, negative = inhibition) at 1uM” value was 4.24%. Cc1ccc(C)c(NC(=O)CCN2CCN(CCO)CC2)c1.Cl was tested, and the “hERG current change (%, negative = inhibition) at 1uM” value was 7.85%. For CCN(CC)c1ccc(CN(C)CCc2ccc(OC)c(OC)c2)cc1, the “hERG current change (%, negative = inhibition) at 1uM” value was -40%. For O=C(CCCSc1nc2sc3c(c2c(=O)[nH]1)CCC3)NCCO, the “hERG current change (%, negative = inhibition) at 1uM” value was 15.2%. O=C(Nc1ccc(O)cc1)c1ccc(NC(=O)C2CCCO2)cc1 (stereo not shown) was tested, and the “hERG current change (%, negative = inhibition) at 1uM” value was 5.74%. For CCOCCOC(=O)c1ccc(NC(=O)C2COc3ccccc3O2)cc1 (stereo not shown), the “hERG current change (%, negative = inhibition) at 1uM” value was 14%. In the case of CCc1ccc2oc(-c3ccc(OC)cc3)cc(=[NH+]c3cccc(C(=O)O)c3)c2c1.F[B-](F)(F)F, the “hERG current change (%, negative = inhibition) at 1uM” value is reported as 4.56%. CCNS(=O)(=O)c1ccc(NC(=O)c2c(-c3ccccc3)noc2C)cc1 was tested, and the “hERG current change (%, negative = inhibition) at 1uM” value was 10.6%. COc1ccc(CC(=O)N2CCN(S(=O)(=O)c3cc(Cl)ccc3Cl)CC2)cc1 was tested, and the “hERG current change (%, negative = inhibition) at 1uM” value was 14%. In the case of COc1ccc(C2CC(=O)C(CS(=O)(=O)c3ccccc3)C(=O)C2)cc1 (stereo not shown), the “hERG current change (%, negative = inhibition) at 1uM” value is reported as 17.8%. In the case of CCCCCCc1ccc(N2C[C@H](Cc3ccccc3)[C@@H](CC(=O)Nc3ccccc3)C2=O)cc1, the “hERG current change (%, negative = inhibition) at 1uM” value is reported as 8.9%. O=C(c1cccn2c(=O)c3cc(Br)ccc3nc12)N1CCN(c2ccccn2)CC1 was tested, and the “hERG current change (%, negative = inhibition) at 1uM” value was -2.68%. For Cc1ccccc1-c1cc(C(=O)NCc2ccco2)n(CC2CC(c3cccnc3)=NO2)n1 (stereo not shown), the “hERG current change (%, negative = inhibition) at 1uM” value was -2.01%. For COc1ccc(C(=O)C2CCCN(C(=O)c3cccnc3SC)C2)c(C)c1 (stereo not shown), the “hERG current change (%, negative = inhibition) at 1uM” value was 16.7%. With Cc1cccc(NC(=O)CN2C(=O)N/C(=C\c3ccc(N4CCOCC4)cc3)C2=O)c1 the “hERG current change (%, negative = inhibition) at 1uM” value was 7.34%. For Cc1ccc(NC(=O)CN(C)C(C)C(=O)Nc2ccc(S(=O)(=O)N3CCCC3)cc2)cc1 (stereo not shown), the “hERG current change (%, negative = inhibition) at 1uM” value was 7.44%. In the case of CN(C)/C=C(/C(=O)c1ccc(Cl)cc1)S(C)(=O)=O, the “hERG current change (%, negative = inhibition) at 1uM” value is reported as 14.4%. In the case of CC(C)CC(CO)N1CCN(C(=O)c2cccc(Cl)c2)CCC1=O (stereo not shown), the “hERG current change (%, negative = inhibition) at 1uM” value is reported as 7.06%. Brc1ccc(-c2csc(/N=C/N3CCOCC3)n2)cc1 was tested, and the “hERG current change (%, negative = inhibition) at 1uM” value was -8.54%. For CCc1ccc(NC(=O)CSc2nnnn2-c2cccnc2)cc1, the “hERG current change (%, negative = inhibition) at 1uM” value was 0.79%. For CCOC(=O)N1CCN(c2ccc(S(=O)(=O)N3CCOCC3)cc2[N+](=O)[O-])CC1, the “hERG current change (%, negative = inhibition) at 1uM” value was 2.97%. With COc1ccc(CN(C(=O)CNC(=O)c2ccco2)C(C(=O)NC2CCCC2)c2ccco2)cc1 (stereo not shown) the “hERG current change (%, negative = inhibition) at 1uM” value was 2.21%. O=[N+]([O-])c1ccccc1Oc1cnc2ccccc2n1 was tested, and the “hERG current change (%, negative = inhibition) at 1uM” value was -5.01%. For c1ccc(CN2CCN(Cc3ccc4ccccc4c3)CC2)cc1, the “hERG current change (%, negative = inhibition) at 1uM” value was 15.9%. For CNCCOc1ccccc1-c1ccccc1.O=C(O)C(=O)O, the “hERG current change (%, negative = inhibition) at 1uM” value was 3.21%. Nc1ncc2c(n1)-c1cc(Cl)ccc1SC2 was tested, and the “hERG current change (%, negative = inhibition) at 1uM” value was -11.7%. With N#Cc1cc(N2CCCCC2)c([N+](=O)[O-])cc1C#N the “hERG current change (%, negative = inhibition) at 1uM” value was 15.3%. In the case of CC1CCCCN1C(=O)Cn1c(=O)n(-c2ccc(F)cc2)c(=O)c2sccc21 (stereo not shown), the “hERG current change (%, negative = inhibition) at 1uM” value is reported as 1.88%. In the case of COC(=O)Nc1ccc2c(c1)N(C(=O)CCN(C)C)c1ccccc1CC2.Cl, the “hERG current change (%, negative = inhibition) at 1uM” value is reported as 15.3%. COc1ccc(OC)c(NC(=O)C2CCCN(S(=O)(=O)c3cccc4nsnc34)C2)c1 (stereo not shown) was tested, and the “hERG current change (%, negative = inhibition) at 1uM” value was 5.54%. O=C(CN1C(=O)/C(=C/c2ccc(F)cc2)SC1=S)NC1C=CS(=O)(=O)C1 (stereo not shown) was tested, and the “hERG current change (%, negative = inhibition) at 1uM” value was 26.4%. In the case of CN(c1ccccc1)S(=O)(=O)c1cccc(Cl)c1Cl, the “hERG current change (%, negative = inhibition) at 1uM” value is reported as 7.11%. In the case of CC(Oc1ccccc1)C(=O)N=C1SC2CS(=O)(=O)CC2N1CCc1ccccc1 (stereo not shown), the “hERG current change (%, negative = inhibition) at 1uM” value is reported as 8.75%. For Cc1ccc(S(=O)(=O)N(Cc2ccccc2)c2ccccc2C(=O)N2CCCCC2)cc1, the “hERG current change (%, negative = inhibition) at 1uM” value was -1.52%. For CC(C)CCNC(=O)C(c1ccc(O)cc1)N(C(=O)C1COc2ccccc2O1)c1cccc(O)c1 (stereo not shown), the “hERG current change (%, negative = inhibition) at 1uM” value was 9.7%. O=C(Nc1ccccc1)c1nc2ccccc2s1 was tested, and the “hERG current change (%, negative = inhibition) at 1uM” value was 8.28%.
